Measured values published in PubChem BioAssay AID624417 (National Center for Advancing Translational Sciences (NCATS), 2012).
Where “and” joins values, the source holds several entries; their conditions need not be identical. Equal values may be shown once. Out of some 410,000 compounds screened, about 6,400 (1.6%) were called active. The inconclusive results got no clear call from the source; some entries with a clear call stand among them for comparison. Calls follow the shape of the dose curve; as a rule, active = well fitted inhibition curve with a large enough effect; inconclusive = small, poorly fitted or top-dose-only effect; inactive = no such curve, though single readings can be large or run the other way. Potencies beside an inconclusive call are fits to weak or partial responses and may not hold up.

These molecules were tested against Glucagon-like peptide 1 receptor (Homo sapiens) (UniProt P43220) (assay: qHTS of GLP-1 Receptor Inverse Agonists (Inhibition Mode)). Details: HEK293 GLP-1R CRE-luciferase, luminescence, 24 h, GLP-1R form is constitutively active; activity change, negative = inhibition: at 38.3 µM (top of the series) unless noted.
UniProt P43220, sequence (P43220 whole entry, looked up): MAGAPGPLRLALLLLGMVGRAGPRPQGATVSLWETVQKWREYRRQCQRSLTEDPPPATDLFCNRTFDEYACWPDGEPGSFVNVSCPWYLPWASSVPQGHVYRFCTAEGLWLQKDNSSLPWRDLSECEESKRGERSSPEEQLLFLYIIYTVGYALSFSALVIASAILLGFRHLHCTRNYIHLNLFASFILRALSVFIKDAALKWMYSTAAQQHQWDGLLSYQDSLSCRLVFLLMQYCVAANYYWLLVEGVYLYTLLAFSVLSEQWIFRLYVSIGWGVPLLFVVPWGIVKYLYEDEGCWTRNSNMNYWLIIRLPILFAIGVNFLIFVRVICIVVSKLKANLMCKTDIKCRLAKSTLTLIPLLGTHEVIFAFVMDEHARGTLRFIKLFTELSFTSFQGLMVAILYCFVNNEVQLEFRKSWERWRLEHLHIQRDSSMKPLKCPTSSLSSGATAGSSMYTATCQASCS
Procedure, shortened: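 Assay principle: reduced luminescence from a cAMP-responsive reporter in HEK293 cells co-expressing a constitutively active GLP-1R. Conditions: 24 hr compound incubation, 37 deg C, 5% CO2.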
% is scaled to controls: 0 for no effect and ±100 for the full control effect; potency is read from the fitted curve at half-maximal effect; tags tell the direction and shape of the fitted curve.
Also: nearly all actives have a fitted effect of over 55% in size.

Compound | Potency | activity change, negative = inhibition
O=C1CN(C(=O)c2ccccc2F)C(c2ccccc2)c2cc(Cl)ccc2N1 (centres undefined) | inconclusive: 28.2 µM [inhibitor, single point] | 
COc1ccc(C2/C(=C(\O)c3ccc4c(c3)OCCO4)C(=O)C(=O)N2Cc2cccnc2)cc1 (centres undefined) | inactive | 
Clc1ccc(Cn2ccc3ccccc32)cn1 | inconclusive: 10 µM [inhibitor, single point] | 
CCN(CC)S(=O)(=O)c1ccc(C(=O)Nc2nc3c(Cl)cc(Cl)cc3s2)cc1 | inactive | 
Clc1ccc(-c2nc3ccccn3c2CN2CCSCC2)cc1 | inconclusive: 10 µM [inhibitor, partial curve, poor fit] | 
CC(=O)Oc1ccccc1Cn1c(C)c(C(=O)NCc2ccccc2C(F)(F)F)sc1=O | inconclusive: 11.2 µM [inhibitor, single point] | 
CCOc1cc(N2CCOCC2)c(OCC)cc1NC(=O)c1c(-c2ccccc2Cl)noc1C | inconclusive: 17.8 µM [inhibitor, single point] | 
O=C(NCc1ccncc1)C(=O)Nc1nc(C23CC4CC(CC(C4)C2)C3)cs1 | inconclusive: 11.2 µM [inhibitor, single point] | 
CN1c2ccccc2-c2nc3ccccc3n2C1c1ccncc1 (centres undefined) | inconclusive: 1.41 µM [inhibitor, full curve] | 
COc1ccc(NC(=O)C2=Cc3cccc(OC)c3OC2)cc1 | inconclusive: 17.8 µM [inhibitor, single point] | 
N#CC(C#N)=C1C=CC=CN1/C(=C\c1ccco1)C(=O)c1ccccc1 | inconclusive: 3.55 µM [inhibitor, full curve, poor fit] | 
COC(=O)c1sc(=S)n(Cc2ccccc2)c1C | inconclusive: 10 µM [inhibitor, partial curve, poor fit] | 
Cc1cccc(OC(=O)c2cc(-c3ccc4c(c3)OCCO4)on2)c1 | inactive | 
Cc1ccc(NS(=O)(=O)c2ccc3c(c2)NC(=O)CCS3)cc1C | inconclusive: 31.6 µM [inhibitor, single point] and inconclusive: 2 µM [inhibitor, partial curve, poor fit] | 
O=C(NC1c2ccccc2Oc2ccccc21)c1ccc([N+](=O)[O-])cc1 | inactive | 
COc1ccc2nc(N3C(=O)CNC3=S)sc2c1 | inconclusive: 10 µM [inhibitor, partial curve, poor fit] | 
COc1cccc(-c2ncc3ccccc3c2COC(=O)c2cccc(Br)c2)c1 | inconclusive: 8.91 µM [inhibitor, partial curve, poor fit] | 
Cc1nnc(SCC(=O)N/N=C/c2ccc(-c3ccc(C)c(Cl)c3)o2)s1 | inconclusive: 28.2 µM [inhibitor, single point] | 
CC(C)(C)c1nnc(N/N=C/c2ccc(Br)cc2)n(N)c1=O | inconclusive: 28.2 µM [inhibitor, single point] | 
O=S(=O)(NC1CCCCC1)c1ccc(Br)s1 | inconclusive: 10 µM [inhibitor, single point] | 
Fc1cccc(CN2CCN(C(=S)NCCc3ccccc3)CC2)c1 |  | inactive: -16.6% [at 7.66 µM]
CNC(=O)C1CCC(Cn2c(=O)[nH]c3ccsc3c2=O)CC1 (centres undefined) | inactive | 

Compound | Potency | activity change, negative = inhibition
O=C(O)c1ccc(N/N=C2/CCSc3ccc(F)cc32)cc1 | inconclusive: 11.2 µM [inhibitor, partial curve, poor fit] | 
CN(Cc1ccccc1)S(=O)(=O)c1ccc(NC(=S)NC(=O)C2CCCCC2)cc1 | active: 2.51 µM | 
CCOC(=O)CNC(=O)N1CCc2cc(S(=O)(=O)N3CCC(C)CC3)ccc21 | inactive | 
CNC(=O)N(O)C1N(/N=C/c2cc(Br)ccc2O)C(=S)SC1(C)C (centres undefined) | inconclusive: 14.1 µM [inhibitor, partial curve, poor fit] | 
COC(=O)c1ccc(CSc2nc3ccccc3c(=O)n2CC(C)C)o1 | inconclusive: 12.6 µM [inhibitor, single point] | 
Cc1cccc(-c2nsc(SCC(=O)c3ccc(Cl)cc3)n2)c1 | inconclusive: 28.2 µM [inhibitor, single point] | 
COc1ccc(NC(=O)Cn2cnc3sc(C)c(S(=O)(=O)N4CCN(C)CC4)c3c2=O)cc1Cl | inactive | 
CCOC(=O)N1CCN(S(=O)(=O)c2ccc3c(c2)CCN3C(=O)C2CCC2)CC1 | inactive | 
CN1CCN(c2oc(-c3ccc(COc4ccc(Cl)cc4)o3)nc2C#N)CC1 | inconclusive: 14.1 µM [inhibitor, single point] | 
O=C(COc1ccc(Nc2ccccc2)cc1)Nc1ccncc1 | inconclusive: 28.2 µM [inhibitor, single point] | 
CCc1ccc(NC(=O)CN2C(=O)COc3ccc(S(=O)(=O)N4CCCC4)cc32)cc1 | inconclusive: 7.08 µM [inhibitor, partial curve, poor fit] | 
O=C(CN1CCN(c2ccc(O)cc2)CC1)Nc1ccc(SC(F)F)cc1 | inconclusive: 31.6 µM [inhibitor, partial curve, poor fit] | 
O=C(c1c[nH]c2ccccc12)C(Cl)c1ccccc1 (centres undefined) | inconclusive: 2.82 µM [inhibitor, full curve] | 
CCCC1C(C(=O)OCC)=C(C)NC(C)=C1C(=O)OCC | inconclusive: 10 µM [inhibitor, partial curve, poor fit] | 
CCOC(=O)C1(Cc2cccc(OC)c2)CCN(CCO)CC1 | inconclusive: 2 µM [inhibitor, partial curve, poor fit] | 
N#Cc1nc(-c2ccc(COc3ccccc3)o2)oc1NCc1ccccc1 | inconclusive: 28.2 µM [inhibitor, single point] | 
COc1cccc(N=c2oc3ccccc3cc2-c2nc3ccccc3[nH]2)c1 | inconclusive: 11.2 µM [inhibitor, partial curve, poor fit] | 
c1ccc2c(c1)CCc1ccccc1C2=C1CCNCC1 | inconclusive: 8.91 µM [inhibitor, partial curve, poor fit] | 
Cn1c(=O)c2cc(NC(=O)CCc3ccc(O)cc3)ccc2n1Cc1cccc(C(F)(F)F)c1 | inconclusive: 0.316 µM [inhibitor, full curve, poor fit] | 
CCOc1ccc(NCc2ccccc2OCc2cccc(F)c2)cc1 | inconclusive: 28.2 µM [inhibitor, single point] | 
Brc1ccc(-c2cn3cccnc3n2)cc1 | inactive | 
COc1ccc(-n2c(COc3ccc(C)cc3)nnc2SCc2ccc(C#N)cc2)cc1 | inconclusive: 25.1 µM [inhibitor, single point] | 

Compound | Potency | activity change, negative = inhibition
O=C(Cn1cc(C(=O)c2ccco2)c2ccccc21)NC1CCCCC1 | inconclusive: 35.5 µM [inhibitor, partial curve, poor fit] | 
COc1cccc(O)c1CN1CCC(Oc2ccc(C(=O)NCc3ccccn3)cc2)CC1 | inconclusive: 10 µM [inhibitor, partial curve, poor fit] | 
O=C(Nc1ccn(Cc2ccccc2F)n1)c1ccc(COc2cc(Cl)ccc2Cl)o1 | inconclusive: 12.6 µM [inhibitor, single point] | 
O=C1CC(N2CCN(c3ccc(O)cc3)CC2)C(=O)N1Cc1cccs1 (centres undefined) | inconclusive: 8.91 µM [inhibitor, partial curve] | 
COc1cc2ccccc2c2c1CCCC2=O | inconclusive: 3.16 µM [inhibitor, partial curve, poor fit] | 
Cc1ccc(C)c(OCC(=O)NNC(=O)C2CCC2)c1 | inactive | 
Cc1cc(C)c(C)c(OCCCn2ccnc2)c1 | inconclusive: 28.2 µM [inhibitor, single point] | 
CC[C@@]12C(=O)N(c3cccc(Br)c3)C(=O)N1[C@H](c1ccc(Br)cc1)[C@@H]1C(=O)N(C(C)(C)C)C(=O)[C@@H]12 | inconclusive: 11.2 µM [inhibitor, partial curve, poor fit] | 
CCOC(=O)c1c(C)[nH]c(C(=O)OCc2ccccc2)c1C | inconclusive: 28.2 µM [inhibitor, single point] | 
CCCOC(=O)c1c(NC(=O)C2c3ccccc3Oc3ccccc32)sc2c1CCC(C)C2 (centres undefined) | inactive | 
CC(=O)C1=C(C)NC(SCC(=O)c2ccccc2)=C(C#N)C1CC(C)C (centres undefined) | inconclusive: 28.2 µM [inhibitor, single point] | 
O=C(COc1ccccc1)NC1CCCCC1 | inactive | 
Cc1onc(-c2ccccc2)c1C(=O)N/N=C/c1cc2c(cc1Cl)OCO2 | inconclusive: 10 µM [inhibitor, single point] | 
CCOC(=O)c1c(C)n(CC(O)c2ccccc2)c2ccc(O)cc12 (centres undefined) | inconclusive: 10 µM [inhibitor, single point] | 
CCOC(=O)C1(CCOc2ccccc2)CCN(Cc2ccc(F)c(OC)c2)CC1 | inconclusive: 12.6 µM [inhibitor, single point] | 
COc1ccc(-c2cn3c(n2)sc2cc(C(=O)NCCCN4CCCCCC4)ccc23)cc1 | inconclusive: 20 µM [inhibitor, single point] | 
COc1ccc(Cc2nnc(SCC(=O)Nc3ccc(C)c(Cl)c3)[nH]c2=O)cc1 | inconclusive: 28.2 µM [inhibitor, single point] | 
COCCc1nn2c(=O)cc(COC(=O)COc3ccc(F)cc3)nc2s1 | inactive | 
OCCC1CN(Cc2ccccc2-c2ccco2)CCN1Cc1ccsc1 (centres undefined) | inconclusive: 4.47 µM [inhibitor, partial curve] | 
CCOC(=O)/C(C(=O)Nc1ccccc1Cl)=C1/NC(C)(C)Cc2ccccc21 | inconclusive: 11.2 µM [inhibitor, single point] | 
